The list shows a part of the results.
Assays:
HSkMC = human skeletal muscle cells; test: cytotoxicity call (relative viability < 0.9); details: 10 µM
HepG2 = test: cytotoxicity call (relative viability < 0.9); details: 10 µM
S. aureus RN4220 = test: growth inhibition call (relative growth <= 0.2); details: 50 µM

SMILES	cytotoxicity call (HSkMC)	cytotoxicity call (HepG2)	growth inhibition call (S. aureus RN4220)
O=C(C[C@@H]1CC[C@@H]2[C@H](COC[C@H](O)CN2S(=O)(=O)c2ccc(F)cc2)O1)N1CCc2ccccc2C1	inactive	inactive	inactive
O=C(C[C@H]1C=C[C@H](NC(=O)C2CCOCC2)[C@H](CO)O1)NCCc1cscn1	inactive	inactive	inactive
C[C@H]1CN([C@@H](C)CO)C(=O)c2cccc(NS(=O)(=O)c3cn(C)cn3)c2O[C@H]1CN(C)C(=O)Nc1ccc2c(c1)OCO2	inactive	inactive	inactive
C[C@H]1CN([C@@H](C)CO)C(=O)Cc2cc(NS(=O)(=O)c3ccccc3)ccc2O[C@@H]1CN(C)Cc1ccncc1	inactive	inactive	inactive
C[C@H](CO)N1C[C@H](C)[C@H](CN(C)Cc2ccc(C(=O)Nc3ccccc3N)cc2)Oc2ccc(NC(=O)Cn3cnnn3)cc2CC1=O	inactive	inactive	inactive
COc1ccc(NC(=O)N(C)C[C@@H]2OCCCC[C@H](C)Oc3ccc(NC(=O)C4CCCCC4)cc3C(=O)N([C@@H](C)CO)C[C@@H]2C)cc1	inactive	inactive	inactive
COc1ccc(CNC(=O)C[C@@H]2CC[C@H]3[C@@H](COC[C@H](O)CN3S(=O)(=O)c3ccc(OC)cc3)O2)cc1	inactive	inactive	inactive
O=C(C[C@H]1CC[C@@H]2[C@H](COC[C@H](O)CN2C(=O)Nc2cccc(Cl)c2)O1)NCc1ccccc1F	inactive	inactive	inactive
C[C@H]1CN([C@@H](C)CO)C(=O)c2cc(NC(=O)Cc3ccccc3)ccc2O[C@H]1CN(C)Cc1ccc(C(F)(F)F)cc1	inactive	inactive	inactive
COc1ccc(S(=O)(=O)N2C[C@@H](O)COC[C@H]3O[C@H](CC(=O)NCCCN(C)C)CC[C@@H]32)cc1	inactive	inactive	inactive
COc1ccc(S(=O)(=O)N(C)C[C@H]2Oc3ccc(NC(=O)Cn4cnnn4)cc3C(=O)N([C@H](C)CO)C[C@@H]2C)cc1	inactive	inactive	inactive
C=CCOC(=O)[C@H]1[C@@H]2C(=O)O[C@@H](c3ccccc3)[C@@H](c3ccccc3)N2[C@@H](c2ccc(OCCOC(=O)[C@H]3C[C@H]4C(=O)N[C@@H](CCCCN(C)C)C(=O)N4[C@H]3c3ccc(O)cc3)cc2)[C@]12C(=O)Nc1ccc(I)cc12	inactive	inactive	inactive
COCC(=O)N(C)C[C@H]1Oc2cc(C#C[C@@H](C)O)ccc2S(=O)(=O)N([C@H](C)CO)C[C@H]1C	inactive	inactive	inactive
C[C@@H]1CCCCO[C@@H](CN(C)S(=O)(=O)c2cn(C)cn2)[C@@H](C)CN([C@H](C)CO)C(=O)c2cc(N(C)C)ccc2O1	inactive	inactive	inactive
CS(=O)(=O)N1CCN2C[C@H](C(=O)O)CN(Cc3ccoc3)C[C@@H]2C1	inactive	inactive	inactive
Cc1noc(C)c1NC(=O)N(C)C[C@H]1Oc2ccc(NS(=O)(=O)c3c(C)noc3C)cc2C(=O)N([C@H](C)CO)C[C@H]1C	inactive	inactive	inactive
COc1ccc(CN(C)C[C@H]2OCCCC[C@@H](C)Oc3ccc(NC(=O)Nc4ccccc4)cc3C(=O)N([C@H](C)CO)C[C@H]2C)cc1	active	active	inactive
COc1ccc(S(=O)(=O)N(C)C[C@@H]2OCCCC[C@@H](C)Oc3ccc(NS(=O)(=O)c4ccc(Cl)cc4)cc3C(=O)N([C@@H](C)CO)C[C@@H]2C)cc1	inactive	inactive	inactive
COc1ccc(NC(=O)N(C)C[C@H]2OCCCC[C@@H](C)Oc3ccc(NC(=O)C4CCCCC4)cc3C(=O)N([C@H](C)CO)C[C@@H]2C)cc1	inactive	inactive	inactive
Cc1noc(C)c1S(=O)(=O)N(C)C[C@H]1OCCCC[C@H](C)Oc2ccc(NS(C)(=O)=O)cc2C(=O)N([C@H](C)CO)C[C@@H]1C	inactive	inactive	inactive
CN1CCN(C(=O)C[C@H]2CC[C@@H]3[C@H](COC[C@@H](O)CN3S(=O)(=O)c3cccc(F)c3)O2)CC1	inactive	inactive	inactive
C[C@H]1CN([C@@H](C)CO)C(=O)Cc2cc(NC(=O)C3CC3)ccc2O[C@@H]1CN(C)S(=O)(=O)c1ccccc1	inactive	inactive	inactive
Cc1noc(C)c1S(=O)(=O)N(C)C[C@@H]1Oc2c(NC(=O)c3cnccn3)cccc2C(=O)N([C@H](C)CO)C[C@@H]1C	inactive	inactive	inactive
